The text below walks through data of the supplement of paper PMC12067230.

Single values of this set are uncertain.
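Note: [psi-pin-] Saccharomyces cerevisiae expressing SupN fusions, induced by 100 µM Cu2SO4, selected 7 d at 30 °C without adenine and uracil, scored by deep sequencing of output versus input.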

A short description of one data set: amyloid nucleation score relative to library mode (yeast Sup35 reporter selection) (log enrichment difference); higher = more amyloid nucleation; sequences are the first 22 residues of the Bri2 peptide extended by up to 12 random residues. Particulars: random library (experiment): 1;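 active = nucleation score significantly above 0 at FDR 0.05; inactive = not significantly above 0 or absent from output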.
For EASNCFAIRHFENKFAVETLICHKSFGDRERKRR, the amyloid nucleation score result was “inactive”.

Turning to EASNCFAIRHFENKFAVETLICHL, the amyloid nucleation score turned out to be 4.83.

Turning to EASNCFAIRHFENKFAVETLICHLADECIYEVTA, the amyloid nucleation score entry was “inactive”.

For EASNCFAIRHFENKFAVETLICHLADMMSRRSGV, the amyloid nucleation score entry was “inactive”.

Take EASNCFAIRHFENKFAVETLICHLCEPIQRVCA: the amyloid nucleation score entry was “inactive”.

In turn, EASNCFAIRHFENKFAVETLICHLESRRVWSRNT had an amyloid nucleation score of 2.45.

EASNCFAIRHFENKFAVETLICHLGFGSRRGTSS came in with an amyloid nucleation score of 1.97.

As to EASNCFAIRHFENKFAVETLICHLINIHGPSEWL, the amyloid nucleation score came out at 6.24.

For EASNCFAIRHFENKFAVETLICHLLLDG, the amyloid nucleation score entry was “inactive”.

EASNCFAIRHFENKFAVETLICHLLS: the amyloid nucleation score result is “inactive”.

Take EASNCFAIRHFENKFAVETLICHLLSS: the amyloid nucleation score entry is “inactive”.

EASNCFAIRHFENKFAVETLICHLLTERHANRAR: the amyloid nucleation score stood at 0.458.

For the sequence EASNCFAIRHFENKFAVETLICHLMCFVGWFEGG, the amyloid nucleation score amounted to 0.176.

For EASNCFAIRHFENKFAVETLICHLMYRPLCRDNV, the amyloid nucleation score result was “inactive”.

The sequence EASNCFAIRHFENKFAVETLICHLNCTYYAGVER displayed an amyloid nucleation score of 8.12.

Turning to EASNCFAIRHFENKFAVETLICHLPSCTPNTEVV, the amyloid nucleation score entry is “inactive”.

EASNCFAIRHFENKFAVETLICHLSVVSAFASMH: the amyloid nucleation score result is “inactive”.

In the case of EASNCFAIRHFENKFAVETLICHLVDRV, the amyloid nucleation score result is “inactive”.

In the case of EASNCFAIRHFENKFAVETLICHLWPALSVERLT, the amyloid nucleation score entry is “inactive”.

As for EASNCFAIRHFENKFAVETLICHMAGCYRVGPIE, the amyloid nucleation score is 1.32.

In turn, EASNCFAIRHFENKFAVETLICHMNS registered an amyloid nucleation score of 5.35.

As for EASNCFAIRHFENKFAVETLICHMYVMTGVGMGC, the amyloid nucleation score amounted to 5.41.

EASNCFAIRHFENKFAVETLICHN displayed an amyloid nucleation score of 0.674.

Take EASNCFAIRHFENKFAVETLICHNGMPHLSILSF: the amyloid nucleation score result is “inactive”.

On to EASNCFAIRHFENKFAVETLICHNMDDSSILNVP, for which the amyloid nucleation score result is “inactive”.

In turn, EASNCFAIRHFENKFAVETLICHNNWCISGGRLP registered an amyloid nucleation score of 7.77.

In the case of EASNCFAIRHFENKFAVETLICHNRIRINFCRPE, the amyloid nucleation score turned out to be 5.13.

With EASNCFAIRHFENKFAVETLICHP, the amyloid nucleation score entry is “inactive”.

With EASNCFAIRHFENKFAVETLICHPKAMP, the amyloid nucleation score amounted to 0.348.

As for EASNCFAIRHFENKFAVETLICHPLKGWLLIHSE, the amyloid nucleation score result was “inactive”.

EASNCFAIRHFENKFAVETLICHPQAVYCEKWGC showed an amyloid nucleation score of 0.92.

As to EASNCFAIRHFENKFAVETLICHPSDFHGNVYCT, the amyloid nucleation score result is “inactive”.

Take EASNCFAIRHFENKFAVETLICHQDCV: the amyloid nucleation score entry is “inactive”.

For the sequence EASNCFAIRHFENKFAVETLICHQMVQGRRGDTL, the amyloid nucleation score came out at 2.64.

As to EASNCFAIRHFENKFAVETLICHQRRRMNGRHRG, the amyloid nucleation score entry is “inactive”.

EASNCFAIRHFENKFAVETLICHQYLLSEFWFKV: the amyloid nucleation score result was “inactive”.

With EASNCFAIRHFENKFAVETLICHRCNYTPLSIRT, the amyloid nucleation score entry is “inactive”.

EASNCFAIRHFENKFAVETLICHRCYNYVCSASR showed an amyloid nucleation score of 3.29.

The sequence EASNCFAIRHFENKFAVETLICHRDLI came in with an amyloid nucleation score of 0.348.

EASNCFAIRHFENKFAVETLICHRGVSNNYLIAW: the amyloid nucleation score result was “inactive”.

For the sequence EASNCFAIRHFENKFAVETLICHRLNVYWPHRDQ, the amyloid nucleation score is 3.5.

Take EASNCFAIRHFENKFAVETLICHRLRWNCSLEWS: the amyloid nucleation score result was “inactive”.

For the sequence EASNCFAIRHFENKFAVETLICHRLWTGKTSCLL, the amyloid nucleation score entry is “inactive”.

Staying with this data set, now noted: random library (experiment): 2.
For the sequence EASNCFAIRHFENKFAVETLICHIYAAGQFYRVC, the amyloid nucleation score result was “inactive”.

For the sequence EASNCFAIRHFENKFAVETLICHIYVYVYKLLTV, the amyloid nucleation score entry was “inactive”.

As to EASNCFAIRHFENKFAVETLICHKNMIDWAMPHF, the amyloid nucleation score is -0.372.

For EASNCFAIRHFENKFAVETLICHKVY, the amyloid nucleation score result was “inactive”.

With EASNCFAIRHFENKFAVETLICHKWILRHYYGFG, the amyloid nucleation score result was “inactive”.

Take EASNCFAIRHFENKFAVETLICHLASG: the amyloid nucleation score result was “inactive”.

In the case of EASNCFAIRHFENKFAVETLICHLFKNYSTFDKG, the amyloid nucleation score result was “inactive”.

The sequence EASNCFAIRHFENKFAVETLICHLHIRNNRIHPG had an amyloid nucleation score of 5.88.

In the case of EASNCFAIRHFENKFAVETLICHLLIAIPCDFS, the amyloid nucleation score came out at 4.79.

As to EASNCFAIRHFENKFAVETLICHLLLIDFVWFKQ, the amyloid nucleation score result was “inactive”.

Take EASNCFAIRHFENKFAVETLICHLMGLFVDGWVV: the amyloid nucleation score entry was “inactive”.

In turn, EASNCFAIRHFENKFAVETLICHLNSVG registered an amyloid nucleation score of 1.44.

As for EASNCFAIRHFENKFAVETLICHLRSLQNTWDG, the amyloid nucleation score entry was “inactive”.

For the sequence EASNCFAIRHFENKFAVETLICHLSWNLALVDVS, the amyloid nucleation score entry was “inactive”.

Consider EASNCFAIRHFENKFAVETLICHLTWNCMGMIDP, for which the amyloid nucleation score is 0.852.

As to EASNCFAIRHFENKFAVETLICHLVSNNFYYV, the amyloid nucleation score worked out at 8.47.

On to EASNCFAIRHFENKFAVETLICHLWRCGLFVAGF, for which the amyloid nucleation score entry was “inactive”.

EASNCFAIRHFENKFAVETLICHMTGYQCVFVGC: the amyloid nucleation score result is “inactive”.

EASNCFAIRHFENKFAVETLICHMVINYCVPERL gave an amyloid nucleation score of 8.13.

EASNCFAIRHFENKFAVETLICHMWYLNEIMRCG gave an amyloid nucleation score of 0.511.

The sequence EASNCFAIRHFENKFAVETLICHNSDRLCALWTE displayed an amyloid nucleation score of 1.48.

EASNCFAIRHFENKFAVETLICHNSSRRYKRGVH had an amyloid nucleation score of 2.25.

For EASNCFAIRHFENKFAVETLICHNTKYLFKCECL, the amyloid nucleation score stood at 4.46.

For the sequence EASNCFAIRHFENKFAVETLICHNVEVS, the amyloid nucleation score was -0.0677.

For EASNCFAIRHFENKFAVETLICHPMTFIKCISKL, the amyloid nucleation score entry was “inactive”.

EASNCFAIRHFENKFAVETLICHQQKSGIIKLMC: the amyloid nucleation score result was “inactive”.

For the sequence EASNCFAIRHFENKFAVETLICHRAMYTSRGNKV, the amyloid nucleation score entry was “inactive”.

EASNCFAIRHFENKFAVETLICHRGIGELSLIGC returned an amyloid nucleation score of 3.45.

For EASNCFAIRHFENKFAVETLICHRIPNFLCRFNR, the amyloid nucleation score was -0.182.

On to EASNCFAIRHFENKFAVETLICHRKSHTFVVFSR, for which the amyloid nucleation score entry is “inactive”.

On to EASNCFAIRHFENKFAVETLICHRMWKRDVPAE, for which the amyloid nucleation score worked out at 0.308.

Still in this data set, the particulars now being: random library (experiment): 3.
Sequence EASNCFAIRHFENKFAVETLICHKC returned an amyloid nucleation score of 0.632.

Consider EASNCFAIRHFENKFAVETLICHKLPLD, for which the amyloid nucleation score entry is “inactive”.

For EASNCFAIRHFENKFAVETLICHKMFTVCMAGVR, the amyloid nucleation score entry was “inactive”.

As to EASNCFAIRHFENKFAVETLICHKRAHYVWMNC, the amyloid nucleation score result was “inactive”.

In turn, EASNCFAIRHFENKFAVETLICHLCARGMNAYGG registered an amyloid nucleation score of 3.25.

As for EASNCFAIRHFENKFAVETLICHLCMECRIAVPS, the amyloid nucleation score amounted to 1.98.

EASNCFAIRHFENKFAVETLICHLHRVGREAAWA displayed an amyloid nucleation score of 0.768.

Sequence EASNCFAIRHFENKFAVETLICHLL had an amyloid nucleation score of 5.78.

Turning to EASNCFAIRHFENKFAVETLICHLLEDS, the amyloid nucleation score entry was “inactive”.

Take EASNCFAIRHFENKFAVETLICHLLWAGKLWAWY: the amyloid nucleation score result is “inactive”.

Consider EASNCFAIRHFENKFAVETLICHLMLTCW, for which the amyloid nucleation score entry is “inactive”.

As for EASNCFAIRHFENKFAVETLICHLMMYTVSSS, the amyloid nucleation score result is “inactive”.

EASNCFAIRHFENKFAVETLICHLQPCGEVGWYG registered an amyloid nucleation score of 5.63.

Regarding EASNCFAIRHFENKFAVETLICHLRACRHLRVF, the amyloid nucleation score was -0.127.

Turning to EASNCFAIRHFENKFAVETLICHMEVRADVRYAA, the amyloid nucleation score stood at 0.475.

In the case of EASNCFAIRHFENKFAVETLICHMLLSVRMNWVM, the amyloid nucleation score entry is “inactive”.

Consider EASNCFAIRHFENKFAVETLICHMTGMFNIKGMV, for which the amyloid nucleation score result was “inactive”.

Take EASNCFAIRHFENKFAVETLICHMWN: the amyloid nucleation score turned out to be 7.78.

For the sequence EASNCFAIRHFENKFAVETLICHNDFLRKVLARC, the amyloid nucleation score entry was “inactive”.

Regarding EASNCFAIRHFENKFAVETLICHNGDTDVPLAQG, the amyloid nucleation score result is “inactive”.

For the sequence EASNCFAIRHFENKFAVETLICHNGPLKCSGSRL, the amyloid nucleation score result is “inactive”.

With EASNCFAIRHFENKFAVETLICHNSVMFTNNRV, the amyloid nucleation score result was “inactive”.

As to EASNCFAIRHFENKFAVETLICHNVSPSALGRRA, the amyloid nucleation score came to 4.7.

With EASNCFAIRHFENKFAVETLICHPLGCDGHDLPK, the amyloid nucleation score result is “inactive”.

Turning to EASNCFAIRHFENKFAVETLICHPPDRFIEWFCS, the amyloid nucleation score came to 2.77.

As for EASNCFAIRHFENKFAVETLICHQIPVGAMRILQ, the amyloid nucleation score entry was “inactive”.

Take EASNCFAIRHFENKFAVETLICHQWPSMVRLVHA: the amyloid nucleation score came out at 0.64.

For EASNCFAIRHFENKFAVETLICHR, the amyloid nucleation score entry was “inactive”.

In turn, EASNCFAIRHFENKFAVETLICHRGMVIRSYVER registered an amyloid nucleation score of 2.33.

For the sequence EASNCFAIRHFENKFAVETLICHRMNWMSEGSNL, the amyloid nucleation score stood at 4.62.
